B1: EphA4 L920F mutant fused to C-terminal mTURQ or EYFP (receptor, human)
chain: [letters of about 200 residues left out]NLAQFPDTITGADTSSLVEVRGSCVNNSEEKDVPKMYCGADGEWLVPIGNCLCNAGHEERSGECQACKIGYYKALSTDATCAKCPPHSYSVWEGATSCTCDRGFFRADNDAASMPC[letters of about 200 residues left out]VLLVSVSGSVVLVVILIAAFVISRRRSKYSKAKQEADEEKHLNQGVRTYVDPFTYEDPNQAVREFAKEIDASCIKIEKVIGVGEFGEVCSGRLKVPGKREICVAIKTLKAGYTDKQRRDFLSEASIMGQFDHPNIIHLEGVVTKCKPVMIITEYMENGSLDAFLRKNDGRFTVIQLVGMLRGIGSGMKYLSDMSYVHRDLAARNILVNSNLVCKVSDFGMSRVLEDDPEAAYTTRGGKIPIRWTAPEAIAYRKFTSASDVWSYGIVMWEVMSYGERPYWDMSNQDVIKAIEEGYRLPPPMDCPIALHQLMLDCWQKERSDRPKFGQIVNMLDKLIRNPNSLKRTGTESSRPNTALLDPSSPEFSAVVSVGDWFQAIKMDRYKDNFTAAGYTTLEAVVHVNQEDLARIGITAITHQNKILSSVQAMRTQMQQMHGRMVPV
notes: EphA4, human, cDNA GenBank NM_001304536.2, with the melanoma mutation L920F; source: HEK293T, transiently cotransfected, in the plasma membrane of live cells; not shown: mTURQ via a (GGS)5 linker (on one copy), C-terminal, kept; EYFP via a (GGS)5 linker (on the other copy), C-terminal, kept
B2: EphA4 L920F-H945E double mutant fused to C-terminal mTURQ or EYFP (receptor, human)
chain: [letters of about 200 residues left out]NLAQFPDTITGADTSSLVEVRGSCVNNSEEKDVPKMYCGADGEWLVPIGNCLCNAGHEERSGECQACKIGYYKALSTDATCAKCPPHSYSVWEGATSCTCDRGFFRADNDAASMPC[letters of about 200 residues left out]VLLVSVSGSVVLVVILIAAFVISRRRSKYSKAKQEADEEKHLNQGVRTYVDPFTYEDPNQAVREFAKEIDASCIKIEKVIGVGEFGEVCSGRLKVPGKREICVAIKTLKAGYTDKQRRDFLSEASIMGQFDHPNIIHLEGVVTKCKPVMIITEYMENGSLDAFLRKNDGRFTVIQLVGMLRGIGSGMKYLSDMSYVHRDLAARNILVNSNLVCKVSDFGMSRVLEDDPEAAYTTRGGKIPIRWTAPEAIAYRKFTSASDVWSYGIVMWEVMSYGERPYWDMSNQDVIKAIEEGYRLPPPMDCPIALHQLMLDCWQKERSDRPKFGQIVNMLDKLIRNPNSLKRTGTESSRPNTALLDPSSPEFSAVVSVGDWFQAIKMDRYKDNFTAAGYTTLEAVVEVNQEDLARIGITAITHQNKILSSVQAMRTQMQQMHGRMVPV
notes: EphA4, human, cDNA GenBank NM_001304536.2, with L920F and H945E; source: HEK293T, transiently cotransfected, in the plasma membrane of live cells; not shown: mTURQ via a (GGS)5 linker (on one copy), C-terminal, kept; EYFP via a (GGS)5 linker (on the other copy), C-terminal, kept
B3: EphA4 H945E mutant fused to C-terminal mTURQ or EYFP (receptor, human)
chain: [letters of about 200 residues left out]NLAQFPDTITGADTSSLVEVRGSCVNNSEEKDVPKMYCGADGEWLVPIGNCLCNAGHEERSGECQACKIGYYKALSTDATCAKCPPHSYSVWEGATSCTCDRGFFRADNDAASMPC[letters of about 200 residues left out]VLLVSVSGSVVLVVILIAAFVISRRRSKYSKAKQEADEEKHLNQGVRTYVDPFTYEDPNQAVREFAKEIDASCIKIEKVIGVGEFGEVCSGRLKVPGKREICVAIKTLKAGYTDKQRRDFLSEASIMGQFDHPNIIHLEGVVTKCKPVMIITEYMENGSLDAFLRKNDGRFTVIQLVGMLRGIGSGMKYLSDMSYVHRDLAARNILVNSNLVCKVSDFGMSRVLEDDPEAAYTTRGGKIPIRWTAPEAIAYRKFTSASDVWSYGIVMWEVMSYGERPYWDMSNQDVIKAIEEGYRLPPPMDCPIALHQLMLDCWQKERSDRPKFGQIVNMLDKLIRNPNSLKRTGTESSRPNTALLDPSSPEFSAVVSVGDWLQAIKMDRYKDNFTAAGYTTLEAVVEVNQEDLARIGITAITHQNKILSSVQAMRTQMQQMHGRMVPV
notes: EphA4, human, cDNA GenBank NM_001304536.2, with H945E; source: HEK293T, transiently cotransfected, in the plasma membrane of live cells; not shown: mTURQ via a (GGS)5 linker (on one copy), C-terminal, kept; EYFP via a (GGS)5 linker (on the other copy), C-terminal, kept
B4: EphA4 ΔSAM mutant (lacking […]) fused to C-terminal mTURQ or EYFP (receptor, human)
chain: [letters of about 200 residues left out]NLAQFPDTITGADTSSLVEVRGSCVNNSEEKDVPKMYCGADGEWLVPIGNCLCNAGHEERSGECQACKIGYYKALSTDATCAKCPPHSYSVWEGATSCTCDRGFFRADNDAASMPC[letters of about 200 residues left out]VLLVSVSGSVVLVVILIAAFVISRRRSKYSKAKQEADEEKHLNQGVRTYVDPFTYEDPNQAVREFAKEIDASCIKIEKVIGVGEFGEVCSGRLKVPGKREICVAIKTLKAGYTDKQRRDFLSEASIMGQFDHPNIIHLEGVVTKCKPVMIITEYMENGSLDAFLRKNDGRFTVIQLVGMLRGIGSGMKYLSDMSYVHRDLAARNILVNSNLVCKVSDFGMSRVLEDDPEAAYTTRGGKIPIRWTAPEAIAYRKFTSASDVWSYGIVMWEVMSYGERPYWDMSNQDVIKAIEEGYRLPPPMDCPIALHQLMLDCWQKERSDRPKFGQIVNMLDKLIRNPNSLKRTGTESSRPNTALLDPSSPEVPV
notes: EphA4, human, cDNA GenBank NM_001304536.2, lacking […], corresponding to the SAM domain; source: HEK293T, transiently cotransfected, in the plasma membrane of live cells; not shown: mTURQ (on one copy), C-terminal, kept; EYFP (on the other copy), C-terminal, kept
B5: EphA2 L913F mutant tagged with mTURQ or EYFP (receptor, human)
chain: [letters of about 500 residues left out]IGGVAVGVVLLLVLAGVGFFIHRRRKNQRARQSPEDVYFSKSEQLKPLKTYVDPHTYEDPNQAVLKFTTEIHPSCVTRQKVIGAGEFGEVYKGMLKTSSGKKEVPVAIKTLKAGYTEKQRVDFLGEAGIMGQFSHHNIIRLEGVISKYKPMMIITEYMENGALDKFLREKDGEFSVLQLVGMLRGIAAGMKYLANMNYVHRDLAARNILVNSNLVCKVSDFGLSRVLEDDPEATYTTSGGKIPIRWTAPEAISYRKFTSASDVWSFGIVMWEVMTYGERPYWELSNHEVMKAINDGFRLPTPMDCPSAIYQLMMQCWQQERARRPKFADIVSILDKLIRAPDSLKTLADFDPRVSIRLPSTSGSEGVPFRTVSEWFESIKMQQYTEHFMAAGYTAIEKVVQMTNDDIKRIGVRLPGHQKRIAYSLLGLKDQVNTVGIPI
notes: EphA2, human, cDNA GenBank NM_004431.5, with L913F (the residue that corresponds to L920 of EphA4); also called EphA2 L913F-mTURQ; EphA2 L913F-EYFP; source: HEK293T, transiently cotransfected, in the plasma membrane of live cells

How the values were obtained:
[1] = target: the molecule itself; test: FRET or BRET; FSI-FRET as without ligand but with 0.5 μg/ml ephrinA5-Fc in the hypo-osmotic medium; monomer-trimer equilibrium; apparent dissociation constant = receptor concentration at 50% oligomeric fraction
[2] = target: the molecule itself; test: FRET or BRET; FSI-FRET of mTURQ- and EYFP-tagged receptor in the plasma membrane of live HEK293T cells, no ligand, hypo-osmotic medium; fit of a monomer-trimer equilibrium (Equation 5); apparent dissociation constant = receptor concentration at which 50% of the receptors are in oligomers
[3] = target: the molecule itself; test: FRET or BRET; FSI-FRET of mTURQ- and EYFP-tagged receptor in the plasma membrane of live HEK293T cells, no ligand, hypo-osmotic medium; fit of a monomer-dimer equilibrium (Equation 2): dimer to monomers; constants in two-dimensional concentration

Protein | stoichiometry N [3] | other results
B1 |  | stoichiometry N [1]: 3
B2 |  | stoichiometry N [2]: 3
B3 | 2 | 
B4 | 2 | 
B5 | 2 | 

Source: article PMC8260879, “A cancer mutation promotes EphA4 oligomerization and signaling by altering the conformation of the SAM domain” (The Journal of Biological Chemistry, 2021)
